Experimental data from publication PMC4336329 (PLoS ONE, 2015).
Hit rate of the full screen: of about 310,000 compounds, about 2,200 (0.71%) showed an effect of 50% or more. The effect is printed as a negative number. Some of the results follow.

Each molecule was assayed against human ether-à-go-go-related gene (hERG) potassium channel (human, UniProt Q12809) (assay: primary screen, population patch clamp on CHO cells stably expressing hERG).
Chain of human ether-à-go-go-related gene (hERG) potassium channel (Q12809 whole entry, looked up): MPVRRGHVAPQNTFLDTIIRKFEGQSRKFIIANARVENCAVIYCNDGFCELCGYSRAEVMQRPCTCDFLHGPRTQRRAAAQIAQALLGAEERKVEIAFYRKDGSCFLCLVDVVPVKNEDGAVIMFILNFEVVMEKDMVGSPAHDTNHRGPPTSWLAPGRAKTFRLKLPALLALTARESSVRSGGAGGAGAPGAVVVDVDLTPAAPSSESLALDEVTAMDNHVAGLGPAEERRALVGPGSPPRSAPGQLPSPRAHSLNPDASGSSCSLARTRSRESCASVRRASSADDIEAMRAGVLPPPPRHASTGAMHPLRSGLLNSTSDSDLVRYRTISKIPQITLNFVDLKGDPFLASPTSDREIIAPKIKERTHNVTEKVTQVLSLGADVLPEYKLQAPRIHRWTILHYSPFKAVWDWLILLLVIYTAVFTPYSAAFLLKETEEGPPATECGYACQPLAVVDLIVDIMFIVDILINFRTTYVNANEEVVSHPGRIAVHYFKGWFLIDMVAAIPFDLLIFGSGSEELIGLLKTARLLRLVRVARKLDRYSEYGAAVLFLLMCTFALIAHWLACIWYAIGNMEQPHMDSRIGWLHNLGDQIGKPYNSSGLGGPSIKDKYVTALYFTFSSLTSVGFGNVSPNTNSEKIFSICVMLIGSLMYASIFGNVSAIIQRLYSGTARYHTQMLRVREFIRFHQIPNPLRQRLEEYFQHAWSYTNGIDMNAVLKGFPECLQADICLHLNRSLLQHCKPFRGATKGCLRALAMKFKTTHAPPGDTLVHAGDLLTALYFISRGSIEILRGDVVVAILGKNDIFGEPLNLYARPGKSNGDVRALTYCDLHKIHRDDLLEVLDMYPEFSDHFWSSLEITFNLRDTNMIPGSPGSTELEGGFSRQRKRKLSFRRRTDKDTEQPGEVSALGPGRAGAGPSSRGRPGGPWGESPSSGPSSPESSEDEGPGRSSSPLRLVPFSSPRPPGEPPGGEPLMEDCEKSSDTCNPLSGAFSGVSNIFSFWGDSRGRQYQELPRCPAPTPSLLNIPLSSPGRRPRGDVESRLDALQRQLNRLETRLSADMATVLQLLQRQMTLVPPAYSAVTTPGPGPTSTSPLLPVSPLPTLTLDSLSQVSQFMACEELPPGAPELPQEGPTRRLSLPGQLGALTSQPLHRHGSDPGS

| Compound | hERG current change (%, negative = inhibition) at 1uM [%] |
| --- | --- |
| Cc1cccc(C)c1NC(=O)NCCSc1snnc1C | 18.8 |
| CCN(CC)C(=O)CSc1nc(C)cc(C)n1 | 11.5 |
| CCC(C)n1c(-c2cc(OC)c(OC)c(OC)c2)nc2nc3ccccc3nc21 (stereo not drawn) | 0.431 |
| O=c1[nH]cccc1-c1nc2ccccc2[nH]1 | 13.1 |
| CCC1Oc2ccccc2N(CC(=O)NC2CCCCC2C)C1=O (stereo not drawn) | 18.7 |
| Brc1ccc(Cn2c(-c3cncs3)nc3ccccc32)cc1 | 6.24 |
| COC(=O)[C@H](CCSC)NC(=O)Nc1ccc(C)cc1C | 12.8 |
| O=C(CCCN1C(=O)CCC1=O)Nc1ccc2c(c1)OCCO2 | 4.6 |
| CCOC(=O)C1=C(c2ccccc2)O/C(=C(/C#N)C(F)(F)F)S1 | 14.2 |
| CC(C)c1onc(C(=O)NCc2ccccn2)c1[N+](=O)[O-] | 1.69 |
| Cc1ccc(N2C(=O)c3cccc4c(Oc5ccccc5[N+](=O)[O-])ccc(c34)C2=O)c(C)c1 | 7.31 |
| N#CC(CC(=O)c1ccc(F)cc1)c1ccc2c(c1)OCO2 (stereo not drawn) | 12.5 |
| CCN(CC)CCNC(=O)CN1C(=O)COc2ccc(S(=O)(=O)N3CCOCC3)cc21 | 11.2 |
| Cc1ccc(/C=C/C(=O)NCCc2cccc(Cl)c2)o1 | 5.9 |
| CC1(C)C2([N+](=O)[O-])CN3CN(C2)CC1([N+](=O)[O-])C3 | 10.9 |
| O=C(Cc1ccc([N+](=O)[O-])cc1)OCc1c(F)cccc1Cl | 14.7 |
| Cc1ccc(S(=O)(=O)N2CCN(C(=O)CCC(=O)NCc3ccc(F)cc3)CC2)cc1 | -7.78 |
| Cc1cccnc1NC1(C(F)(F)F)N=C(c2ccccc2)NC1=O (stereo not drawn) | -1.99 |
| COC(=O)c1ccc(S(=O)(=O)N2C3CCC2CC(NC(=O)C2CC2)C3)cc1 (stereo not drawn) | 10.6 |
| Cl.NC(N)=NCCCC(NC(=O)c1ccccc1)C(=O)Nc1ccc([N+](=O)[O-])cc1 (stereo not drawn) | 13 |
| COc1ccc(/C=N/n2c(N)c(S(=O)(=O)c3cccs3)c3nc4ccccc4nc32)cc1OC | 18.1 |
| CCCCc1ccc(C(=O)NC(C(=O)O)C(C)C)cc1 (stereo not drawn) | 16.1 |
| CCOC(=O)N1CCN(S(=O)(=O)c2ccc(OC)cc2)CC1 | 7.63 |

| Compound | hERG current change (%, negative = inhibition) at 1uM [%] |
| --- | --- |
| Cc1ccc2nc(Cl)c3nnnn3c2c1 | 1.13 |
| COc1ccc(C)cc1NC(=O)Nc1cccc(C(=O)O)c1 | 10.7 |
| Cc1ccc(CN2CCN(Cc3ccc(OC(C)C)cc3)CC2CCO)o1 (stereo not drawn) | -7.31 |
| O=c1[nH]c(CN2CCN(c3ccc(O)cc3)CC2)nc2scc(-c3ccc(Cl)cc3)c12 | 0.484 |
| Cc1ccc(NC(=O)c2sc3ncn(CC(=O)N4CCN(c5ccccn5)CC4)c(=O)c3c2C)cc1Cl | 10.5 |
| CCCOc1ccc(CCc2n[nH]c(=S)n2-c2ccccc2)cc1 | 7.74 |
| CCOC(=O)C1CCCN(c2cc(=O)n(Cc3ccc(F)cc3)c(=O)[nH]2)C1 (stereo not drawn) | -6.54 |
| O=C(NC(=S)Nc1ccc(N2CCCCC2)c(Cl)c1)c1ccc2c(c1)OCCO2 | 13.4 |
| COC1CCCN(C(=O)c2ccc3nc(Cc4cccc(Cl)c4)oc3c2)C1 (stereo not drawn) | 9.46 |
| Cc1ccc(OCc2cc(C(=O)N(C)Cc3cnc4ccccn34)no2)cc1C | 2.9 |
| c1ccc(Oc2ncnc3sccc23)cc1 | 16.3 |
| CC1(c2nnc(-c3cccc(Cl)c3)o2)CC(c2ccccc2Br)=NO1 (stereo not drawn) | 1.19 |
| Cc1cc(C(=O)O)ccc1N=Cc1c(O)ccc2ccccc12 | 9.88 |
| CCOC(=O)CSc1nc(C)cc2c1C(=O)OC2 | 4.41 |
| Cn1c(=O)c2c(SCc3ccccn3)nc(C3CC3)nc2n(C)c1=O | 12.1 |
| N#C/C(=C(/O)COc1ccc(Br)cc1)c1nnc2n1CCCCC2 | 2.1 |
| O=C(COc1ccccc1)Nc1nnc(S(=O)(=O)N2CCCCCC2)s1 | -11.7 |
| CC(=O)Nc1cnc(NC(=O)c2cccc(F)c2)cc1C | 12 |
| O=C(CN1C(=O)C2CCCCC2C1=O)Nc1cc(C(F)(F)F)ccc1N1CCCC1 (stereo not drawn) | 15.4 |
| CCOC(=O)c1sc(NS(=O)(=O)c2ccccc2Cl)nc1C | 6.75 |
| CCOc1ccc(NC(=O)Cn2c(=O)n(CCCC(=O)NC3CCN(Cc4ccccc4)CC3)c(=O)c3ccccc32)cc1 | -5.36 |
| C/C(=N\NC(=O)c1c(Cl)cnn1C)c1ccc(NC(=O)c2ccncc2)cc1 | 9.51 |
